# Test results from the supplement of paper PMC8728848.
# This is one part of the list.
# B1: Epa13 (Candida glabrata) (protein)
# chain: MGSSHHHHHHSSGLVPRGSHMASDSSENGYAHGCSPSIRAKLKPGLSMEIYSYALRPTDDHCWDSAYLDPMFPRTGYLTHKLLGKAEGIIGPLNFLAKNPACIPAVSTLPLAFHFPKPFTITNFTMLLYGYLSPKKTGKYTFKLLADDLLLMNFGADNAFDCCSHDATKDNIGEYVAYSVWPGVNKNVTVYLESGIYYPLRLFFNNRDAIAQLDFAYYFNDSPIRQTDFSGMFFSIPDSVKCPANI
# Tests used:
# Test in all cases: glycan array binding signal (z-score within array); higher = stronger binding
# Settings in all cases: glycan notation: IUPAC condensed, linker removed
# [1] = molecular target: Gal6S(b1-4)Glc6S
# In short: (§1)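 Glycan array binding is given as a within-array Z-score, which can be read as non-binding when negative. The arrays, 3228 of them, came from the Consortium for Functional Glycomics database and were retained only where the protein sequence was available. Z-scores were averaged across arrays of the same protein sequence at different concentrations or buffers and across linkers.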
# [2] = molecular target: Gal6S(b1-4)GlcNAc
# In short: as §1
# [3] = molecular target: Gal6S(b1-4)GlcNAc6S
# In short: as §1
# [4] = molecular target: GalNAc(a1-3)Gal
# In short: as §1
# [5] = molecular target: GalNAc(a1-3)GalNAc
# In short: as §1
# [6] = molecular target: GalNAc(a1-3)GalNAc(b1-3)Gal(a1-4)Gal(b1-4)Glc
# In short: as §1
# [7] = molecular target: GalNAc(a1-3)GalNAc(b1-3)Gal(a1-4)Gal(b1-4)GlcNAc
# In short: as §1
# [8] = molecular target: GalNAc(b1-3)Gal
# In short: as §1
# [9] = molecular target: GalNAc(b1-3)Gal(a1-4)Gal(b1-4)GlcNAc
# In short: as §1
# [10] = molecular target: GalNAc(b1-3)Gal(a1-4)Gal(b1-4)GlcNAc(b1-3)Gal(b1-4)Glc
# In short: as §1
# [11] = molecular target: GalNAc(b1-3)Gal(a1-6)Gal(b1-4)Glc
# In short: as §1
# [12] = molecular target: GalNAc(b1-3)GalNAc
# In short: as §1
# [13] = molecular target: GalNAc(b1-3)GlcNAc
# In short: as §1
# [14] = molecular target: GalNAc(b1-4)Gal(b1-4)Glc
# In short: as §1
# [15] = molecular target: GalNAc(b1-4)GlcNAc
# In short: as §1
# [16] = molecular target: GalNAc(b1-4)GlcNAc(b1-2)Man
# In short: as §1
# [17] = molecular target: GalNAc(b1-4)GlcNAc(b1-2)Man(a1-3)[GalNAc(b1-4)GlcNAc(b1-2)Man(a1-6)]Man(b1-4)GlcNAc(b1-4)GlcNAc
# In short: as §1
# [18] = molecular target: GalNAc(b1-4)GlcNAc(b1-3)GalNAc(b1-4)GlcNAc
# In short: as §1
# [19] = molecular target: GalNAc(b1-4)GlcNAc6S
# In short: as §1
# [20] = molecular target: GalNAc(b1-6)GalNAc
# In short: as §1
# [21] = molecular target: GalNAc3S(b1-4)GlcNAc
# In short: as §1
# [22] = molecular target: GalNAc3S(b1-4)GlcNAc3S
# In short: as §1
# [23] = molecular target: GalNAc3S(b1-4)[Fuc(a1-3)]GlcNAc
# In short: as §1
# [24] = molecular target: GalNAc4S6S(b1-4)GlcNAc
# In short: as §1
# [25] = molecular target: GalNAc6S(b1-4)GlcNAc
# In short: as §1
# [26] = molecular target: Glc(a1-4)Glc
# In short: as §1
# [27] = molecular target: Glc(a1-4)Glc(a1-4)Glc(a1-4)Glc
# In short: as §1
# [28] = molecular target: Glc(a1-6)Glc(a1-6)Glc
# In short: as §1
# [29] = molecular target: Glc(a1-6)Glc(a1-6)Glc(a1-6)Glc
# In short: as §1
# [30] = molecular target: Glc(b1-4)Glc
# In short: as §1
# [31] = molecular target: Glc(b1-6)Glc
# In short: as §1
# [32] = molecular target: GlcA(b1-3)Gal
# In short: as §1
# [33] = molecular target: GlcA(b1-3)GlcNAc
# In short: as §1
# [34] = molecular target: GlcA(b1-6)Gal
# In short: as §1
# [35] = molecular target: GlcA3S(b1-3)Gal(b1-4)GlcNAc(b1-2)Man
# In short: as §1
# [36] = molecular target: GlcA3S(b1-3)Gal(b1-4)GlcNAc(b1-3)Gal(b1-4)Glc
# In short: as §1
# [37] = molecular target: GlcNAc(a1-3)Gal(b1-4)GlcNAc
# In short: as §1
binder,measurement,setting,value
B1,glycan array binding signal (z-score),[1],1.4
same,glycan array binding signal (z-score),[2],0.111
same,glycan array binding signal (z-score),[3],2.69
same,glycan array binding signal (z-score),[4],-0.394
same,glycan array binding signal (z-score),[5],-0.305
same,glycan array binding signal (z-score),[6],-0.274
same,glycan array binding signal (z-score),[7],-0.323
same,glycan array binding signal (z-score),[8],-0.261
same,glycan array binding signal (z-score),[9],-0.05
same,glycan array binding signal (z-score),[10],-0.135
same,glycan array binding signal (z-score),[11],0.011
same,glycan array binding signal (z-score),[12],0.087
same,glycan array binding signal (z-score),[13],-0.366
same,glycan array binding signal (z-score),[14],0.098
same,glycan array binding signal (z-score),[15],-0.206
same,glycan array binding signal (z-score),[16],-0.532
same,glycan array binding signal (z-score),[17],0.35
same,glycan array binding signal (z-score),[18],-0.394
same,glycan array binding signal (z-score),[19],-0.202
same,glycan array binding signal (z-score),[20],-0.464
same,glycan array binding signal (z-score),[21],-0.301
same,glycan array binding signal (z-score),[22],-0.312
same,glycan array binding signal (z-score),[23],-0.274
same,glycan array binding signal (z-score),[24],-0.159
same,glycan array binding signal (z-score),[25],-0.075
same,glycan array binding signal (z-score),[26],-0.521
same,glycan array binding signal (z-score),[27],0.137
same,glycan array binding signal (z-score),[28],-0.186
same,glycan array binding signal (z-score),[29],-0.355
same,glycan array binding signal (z-score),[30],-0.276
same,glycan array binding signal (z-score),[31],-0.517
same,glycan array binding signal (z-score),[32],-0.273
same,glycan array binding signal (z-score),[33],-0.289
same,glycan array binding signal (z-score),[34],0.431
same,glycan array binding signal (z-score),[35],-0.131
same,glycan array binding signal (z-score),[36],-0.046
same,glycan array binding signal (z-score),[37],-0.07
